{
  "source": "patent US20040180094A1",
  "about": "(priority 2003, published 2004)",
  "conditions": "pH values around neutral",
  "description": "The novel protecting group 2-bromo-2-(2-nitrophenyl) acetic acid (BNPA) was used to make all proteins photactivatable. This water-soluble reagent places an a-carboxy-2-nitrobenzyl (CNB) group on sulfhydryl groups. BNPA was produced in high yield by the bromination of 2-nitroacetyl chloride, followed by hydrolysis of the acyl chloride group.",
  "data": [
    {"smiles": "O=C(O)C(Br)c1ccccc1[N+](=O)[O-]", "note": "(stereo not shown) [BNPA, 2-bromo-2-(2-nitrophenyl) acetic acid]", "values": [
      {"measurement": "water solubility", "result": "highly water-soluble"}
    ]}
  ]
}
